Publication PMC6919601, “Identification of Plasmodium dipeptidyl aminopeptidase allosteric inhibitors by high throughput screening” (PLoS ONE, 2019)
Hit rate of the full screen: of about 110,000 compounds, about 230 (0.21%) showed an effect of 50% or more. The list shows a part of the results.

What follows are molecules tested against DPAP1 (Plasmodium falciparum, UniProt Q8IIJ9) (assay: primary screen, percent inhibition; read by cleavage of a fluorogenic dipeptide substrate; higher = more effect of the substance).
DPAP1, sequence (Q8IIJ9 whole entry, looked up): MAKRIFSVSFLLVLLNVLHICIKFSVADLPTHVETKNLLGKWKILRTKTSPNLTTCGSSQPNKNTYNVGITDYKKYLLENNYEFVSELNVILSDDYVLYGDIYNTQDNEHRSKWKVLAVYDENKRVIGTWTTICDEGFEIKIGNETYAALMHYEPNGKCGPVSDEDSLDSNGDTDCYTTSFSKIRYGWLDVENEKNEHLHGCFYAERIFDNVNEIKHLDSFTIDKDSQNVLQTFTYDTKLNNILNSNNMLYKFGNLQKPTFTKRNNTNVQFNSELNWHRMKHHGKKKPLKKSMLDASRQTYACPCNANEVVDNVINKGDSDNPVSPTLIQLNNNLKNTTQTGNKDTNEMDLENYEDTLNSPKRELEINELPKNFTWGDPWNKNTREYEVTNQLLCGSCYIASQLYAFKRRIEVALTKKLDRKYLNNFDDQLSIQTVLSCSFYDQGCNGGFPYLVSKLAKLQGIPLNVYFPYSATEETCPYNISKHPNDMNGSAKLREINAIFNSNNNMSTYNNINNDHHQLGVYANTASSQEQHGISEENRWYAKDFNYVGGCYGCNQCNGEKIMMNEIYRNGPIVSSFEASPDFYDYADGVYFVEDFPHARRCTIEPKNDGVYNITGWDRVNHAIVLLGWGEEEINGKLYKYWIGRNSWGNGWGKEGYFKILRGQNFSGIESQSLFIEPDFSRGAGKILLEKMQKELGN
Parameters: species or system P. falciparum D10 trophozoite lysates; single well
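Note: 30 min substrate incubation versus DMSO and 10 µM JCP410 controls.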

SMILES	% Inhibition @ 10 uM [%]
CC1=C(C(=O)OCC2CCCO2)C(c2ccc(Cl)cc2)NC(=O)N1 (centres unmarked)	-2.2
Cc1ccc(OC2OC(CO)C(O)C(O)C2O)cc1C (centres unmarked)	-5.32
Cc1cc(NC(=O)CSc2nc3nccnc3c(=O)n2CC2CCCO2)[nH]n1 (centres unmarked)	2.25
O=C1CC(C2CCCO2)C(=O)N1c1ccccc1 (centres unmarked)	-4.13
O=C(NCc1cccc(Cl)c1)c1cc2ccccn2n1	-0.0115
O=C(CCN1C(=O)c2ccccc2C1=O)N1CCCC1	1.89
Cc1oc2c(c1C(=O)NCc1ccccn1)C(=O)c1ccccc1C2=O	-7.35
O=[N+]([O-])c1ccc(N2CCN(CC(O)COc3ccccc3)CC2)cc1 (centres unmarked)	0.467
O=C(CSc1nnc(-c2cccnc2)n1-c1ccccc1)NCc1ccccc1	-0.703
CC1=C(C(=O)N2CCCCC2)C(c2ccc(Cl)cc2)C2=C(O)CC(C)(C)CC2=N1 (centres unmarked)	-0.864
C=CCn1c(Oc2ccccc2Cl)nc2c1c(=O)n(C)c(=O)n2C	-2.67
CCCCOc1ccc(C(C)(C#N)CC#N)cc1 (centres unmarked)	2.51
CC(=O)Nc1nc2ccc(NC(=O)c3sc4ccccc4c3Cl)cc2s1	5.89
O=C(CSc1cn(CC(=O)N2CCOCC2)c2ccccc12)NCc1ccccc1	-3.13
O=C(O)c1cc(Br)ccc1NS(=O)(=O)c1cccc2nsnc12	3.12
CC(C)(C)C(/C=C\c1ccc(Cl)cc1Cl)n1nnnc1C(C)(C)N1CCOCC1 (centres unmarked)	-3.92
CCOc1ccccc1CNc1ncnc2onc(C)c12	-5.16
c1ccc(CCNc2cc(-c3ccccc3)nc3nncn23)cc1	-2.57
COCCNC(=O)CNC(=S)N(Cc1ccccc1)Cc1cccs1	-0.406
c1cnc2[nH]c(SCCN3CCOCC3)nc2c1	-5.37
N#C/C(=C(/O)c1ccc(Cl)cc1)c1nc2ccccc2[nH]1	-1.44
O=C(C1CCN(S(=O)(=O)N2CCCCCC2)CC1)N1CCC2(CC1)OCCO2	-7.85
OC(CN1CC=C(Cc2ccccc2)CC1)c1ccccc1 (centres unmarked)	0.605
COc1ccc(CNC(=O)c2cc(=O)c3cc(C)cc(C)c3o2)cc1	-5.08
c1ccc2c(c1)ncn2CCN1CCCCC1	-1.54
Cc1ccc2oc(=O)c3cnn(CC(=O)NCCN(C)C4CCCCC4)c3c2c1	-0.0115

SMILES	% Inhibition @ 10 uM [%]
Cc1cccc(OCCCCn2ccnc2)c1C	2.7
COc1ccc(Nc2ccc(Cl)cc2)c(C(=O)O)c1	-6.36
Cc1ccc(NS(=O)(=O)c2ccc(Cl)cc2)c(C)c1	0.912
O=C(CCCn1c2ccccc2c2cnnc(O)c21)NCc1cccc(Cl)c1	1.38
CC(C)c1ccc2c(c1)[C@H]1OCC[C@H]1[C@@H](c1cccs1)N2	-0.872
COc1ccc(-c2noc(CN(C)S(=O)(=O)c3ccc(Br)cc3)n2)cc1	2.21
CCc1ccc(C2C(C#N)=C(N)Oc3c2c(C)nn3-c2ccc(C)cc2)cc1 (centres unmarked)	6.42
Cn1nc(C(=O)N(Cc2ccco2)C2CCCCC2)c2c1-c1ccccc1OC2	3.3
Cc1ccc(CSc2nnc(-n3c(=O)c(C#N)cc4c(=O)n5ccccc5nc43)s2)cc1	-0.551
Cc1cccc(C2C(C#N)=C(N)Oc3[nH]nc(-c4ccc5c(c4)OCO5)c32)c1 (centres unmarked)	2.38
N#CC1=C2SCN(C3CCCCC3)CN2C(=O)CC1c1cccc2ccccc12 (centres unmarked)	53.8
CSCCC(NC(=O)c1ccc(C#CC(C)(C)O)cc1)C(=O)O (centres unmarked)	-2.42
CCC(=O)N1C(C(=O)NCCCN2CCCCC2)CSC12CCN(C)CC2 (centres unmarked)	3.49
Cc1nc2c(C(=O)NCc3ccc4c(c3)OCO4)cnn2c(O)c1Cl	-2.14
CC1NC(C(=O)O)Cc2c1[nH]c1ccccc21 (centres unmarked)	-4.02
Cc1ccc(C(=O)CCC(=O)Nc2ccccc2F)cc1	-1.61
O=C(O)c1ccccc1C(=O)NCCc1ccc(Cl)cc1	1.16
Cc1ccc2oc(O)cc(=O)c2c1O	-3.53
CC(NC(=O)C(c1ccccc1)c1ccccc1)c1ccccc1 (centres unmarked)	3.74
COc1ccccc1CNS(=O)(=O)c1ccc2oc(C(=O)O)c(C)c2c1	2.59
O=c1c([N+](=O)[O-])cn(-c2ccc(Cl)cc2)c2cc(Cl)ccc12	-2.7
CCC(Sc1ccccn1)C(=O)Nc1ccc(Cl)cn1 (centres unmarked)	10
COC(=O)C1=C(C)N=c2s/c(=C\c3c(F)cccc3Cl)c(=O)n2C1c1cccs1 (centres unmarked)	1.67
CC(Cc1ccccc1)NCc1ccco1 (centres unmarked)	3.15
CCOc1ccc(C2CC(=O)NC(SC)=C2C#N)cc1 (centres unmarked)	1.13
Nc1ccc(C2=CCCc3nonc32)c2nonc12	2.8

SMILES	% Inhibition @ 10 uM [%]
CCOc1ccc(C2CC(=O)Nc3nc(SCc4ccc(F)cc4)nc(O)c32)cc1OC (centres unmarked)	-1.11
Cc1ccc(S(=O)(=O)n2nc(-c3ccccc3)nc2NCc2ccco2)cc1	2.31
COc1cccc(NC(=O)c2cc(F)c(Cl)nc2Cl)c1	0.0999
O=C1c2ccc(F)cc2C(=O)N1c1ccncc1	2.8
CCCNCCOC(c1ccccc1)c1ccccc1	0.343
Cc1cc(C)c(NC(=O)CSc2nc(N)cc(O)n2)c(C)c1	-5.23
COc1ccc(Cl)cc1C(=O)N1CC(C)N(C(=O)c2cc(Cl)ccc2OC)CC1C (centres unmarked)	1.28
COc1cccc(CN2CCN(Cc3ccccc3F)CC2)c1OC	3.8
CCOC(=O)c1ccc(Oc2coc3cc(O)ccc3c2=O)cc1	2.31
Cn1c2ccccc2c2c(C(=O)NC3CCCCC3)cn(C3CCCCC3)c(=O)c21	-3.39
COc1ccc(OC)c(C2C3=C(O)CCCC3=Nc3ccc4ncccc4c32)c1 (centres unmarked)	2.36
CCc1c(C)sc(NC(=O)c2ccc(C(C)C)cc2)c1C(N)=O	15.9
CCSc1nc(-c2ccc(C)cc2)nc2c1Cc1c(CO)cnc(C)c1O2	-1.11
O=C(NCCCN1CCN(C2CCCCC2)CC1)C1CCN(c2nnc(-n3cccc3)s2)CC1	1.15
O=C(O)c1c(CNCCCN2CCCC2=O)c2ccccc2n1Cc1ccccc1Cl	0.277
Cc1cc(C)c(OCC(=O)N(Cc2cccc(F)c2)C2CCS(=O)(=O)C2)c(C)c1 (centres unmarked)	-4.95
CN1CCN(Cc2ccccc2Cl)CC1	-5.57
C=C(C)CN(CC)Cc1ccncc1	-4.14
CC1=C(C(=O)Nc2cccnc2)C(c2ccccc2F)n2nnnc2N1 (centres unmarked)	0.279
N#CCNC(=O)C1(NC(=O)N2CCN(c3ccccn3)CC2)CCCCC1	-1.41
CC(C)N(Cc1ccccc1)C(=O)c1cccs1	4.03
CCc1ccc(-n2nc(C)c3c(C(F)(F)F)cc(=O)n(CC(=O)NCc4ccc(F)cc4)c32)cc1	1.63
COc1cccc(NC(=O)CN(C)S(=O)(=O)c2ccc(F)cc2)c1	-6.02
Cc1ccc(OCC(=O)N(Cc2sccc2C)C2CCS(=O)(=O)C2)cc1C (centres unmarked)	-1.11
CCOc1c(Cl)cc(C(=O)N(Cc2ccco2)C2CCS(=O)(=O)C2)cc1Cl (centres unmarked)	0.569
CCn1cc(C(=O)O)c(=O)c2cc(F)c(N3CCOCC3)cc21	-2.2

SMILES	% Inhibition @ 10 uM [%]
CN(Cc1ccccc1)c1ncnc2c1nc1n2CCCCC1	-0.0255
COc1cc(C(=O)N(Cc2ccccc2)Cc2ccccc2)cc(OC)c1OC	-0.85
O=C(NCc1ccco1)c1nc(CS(=O)(=O)c2ccccc2)no1	-2.05
CCn1c(C(=O)N2CCc3ccccc3C2)cc2oc3ccccc3c21	-3.34
O=C(Nc1ccc(Cl)cc1)C(=O)NC1CCCCC1	1.29
OCC1CCCN1Cc1cc(F)ccc1F (centres unmarked)	-0.0648
CC(=O)N/C(=C\c1ccccc1)C(=O)NCc1ccc(C)cc1	-0.256
CC1CC(C)CN(C(=O)Cn2c(=O)n(CCC(=O)NCc3ccccc3)c(=O)c3sccc32)C1 (centres unmarked)	-8.56
O=C(O)COc1ccc(C23CC4CC(CC(C4)C2)C3)cc1	-2.62
Brc1ccc(OCCCn2ccnc2)cc1	-3.42
CCOC(=O)c1[nH]nc2c1CCCC2	6.13
O=C(Nc1cccc(Cl)c1)N1CCCCC1	-2.55
Cc1ccc(C(=O)Nc2ccc(S(=O)(=O)N3CCOCC3)cc2)cc1Br	0.245
CN1CCCC1c1cccnc1N (centres unmarked)	-0.744
Cc1ccc(C(=O)COC(=O)c2cc(O)nc3ccccc23)cc1C	4.95
COc1ccc(-c2cc(C(=O)N3CCN(C4CCCCC4)CC3)[nH]n2)cc1	-1.3
CC(=O)c1c(O)cc(C)o/c1=N\c1cc(Cl)ccc1C	-0.736
Cc1nc2ccccc2n1S(=O)(=O)c1ccc(Br)cc1	1.65
Cc1cn2c(nc1=O)OC1C(O)C(CO)OC12 (centres unmarked)	-4.18
CC(C)OCCCNC(=O)CCCCCn1c(=O)[nH]c2ccsc2c1=O	-0.972
CC(C)c1ccc2[nH]c3c(c2c1)CCCC3O (centres unmarked)	3.54
COc1cccc(CNCc2c(C(=O)O)c(C)n(Cc3ccc(F)cc3)c2C)c1	-9.31
CCn1c(C(=O)O)c(CNCc2cc(OC)ccc2OC)c2ccc(C)cc21	-2.39
CNC(=O)C1CCCN(c2nn3c(=O)cc(C)nc3s2)C1 (centres unmarked)	-3.34
O=C1CCCC2=C1C(c1ccccc1Cl)NC(Nc1nc3ccccc3s1)=N2 (centres unmarked)	29.3
Nc1nc2ccccn2c1C(=O)c1ccccc1	6.27
